Experimental findings from the antibiotic and cytotoxicity screens of Wong et al. (2023) are described below.

The list shows a part of the results.

For the experiment, the system named is HepG2. Kind of experiment: cytotoxicity call (relative viability < 0.9). The note with it: 10 µM.
As for `Cc1noc(C)c1S(=O)(=O)Nc1ccc2c(c1)C(=O)N([C@@H](C)CO)C[C@H](C)[C@H](CN(C)S(C)(=O)=O)O2`, the cytotoxicity call is “inactive”. Consider `O=C(C[C@@H]1CC[C@H]2[C@@H](COC[C@@H](O)CN2S(=O)(=O)c2cccc(Cl)c2)O1)NC1Cc2ccccc2C1`, for which the cytotoxicity call was “inactive”. To `Cc1noc(C)c1NC(=O)N(C)C[C@@H]1OCCCC[C@H](C)Oc2ccc(NC(=O)Cc3ccccc3)cc2C(=O)N([C@@H](C)CO)C[C@@H]1C` belongs “inactive”; to `C[C@@](Cc1ccc(O)c(O)c1)(NN)C(=O)O`, “active”. To `O=C(O)CCCCCCCCCCCCC1C=CCC1` (stereo not given) belongs “inactive”; to `Cc1noc(C)c1S(=O)(=O)N(C)C[C@@H]1Oc2ccc(NS(C)(=O)=O)cc2C(=O)N([C@H](C)CO)C[C@@H]1C`, “inactive”.

Consider `Cc1noc(C)c1NC(=O)Nc1ccc2c(c1)C(=O)N([C@H](C)CO)C[C@@H](C)[C@@H](CN(C)Cc1ccc(Cl)c(Cl)c1)OCCCC[C@H](C)O2`, for which the cytotoxicity call is “active”. To `C[C@H]1CN([C@@H](C)CO)S(=O)(=O)c2ccc(-c3cccc(C#N)c3)cc2O[C@H]1CN(C)C(=O)c1ccncc1` belongs “inactive”. For the molecule `Cc1noc(C)c1NC(=O)Nc1cccc2c1O[C@@H](CN(C)S(C)(=O)=O)[C@@H](C)CN([C@H](C)CO)C2=O`, the cytotoxicity call is “inactive”. To `Cc1noc(C)c1S(=O)(=O)Nc1ccc2c(c1)CC(=O)N([C@H](C)CO)C[C@H](C)[C@H](CN(C)CC1CC1)O2` belongs “inactive”. To `C[C@@H]1CN([C@H](C)CO)S(=O)(=O)c2ccc(C#Cc3ccccn3)cc2O[C@@H]1CN(C)Cc1ccccc1` belongs “inactive”; to `C[C@H]1CN([C@@H](C)CO)C(=O)c2cc(NC(=O)CCN3CCOCC3)ccc2O[C@@H]1CN(C)S(=O)(=O)c1ccc(Cl)cc1`, “inactive”; to `C[C@H]1CN([C@@H](C)CO)C(=O)c2cc(C3=CCCCC3)cnc2O[C@@H]1CN(C)C(=O)CN1CCOCC1`, “inactive”. To `C[C@H](CO)N1C[C@H](C)[C@H](CN(C)S(=O)(=O)c2cccc(F)c2)Oc2ncc(C#Cc3ccccc3)cc2C1=O` belongs “inactive”; to `C=CC[C@@H](CC(=O)N[C@@H](CO)Cc1ccccc1)C(=O)N[C@H](COC(=O)[C@@H](CC=C)Cc1ccc(F)cc1)Cc1c[nH]c2ccccc12`, “inactive”; to `COc1ccc2c3c(n(c2c1)C)[C@@H](CO)N(C[C@]13CN(C1)C(=O)C1CC1)C(=O)CN1CCOCC1`, “inactive”. Consider `Nc1nnc(-c2ccno2)o1`, for which the cytotoxicity call is “inactive”. `Cl.Cl.NCCNCCNCCN`: the cytotoxicity call is “inactive”.

`C[C@@H]1CN([C@H](C)CO)C(=O)c2cc(NS(=O)(=O)c3cccs3)ccc2O[C@@H]1CN(C)Cc1ccc(Cl)c(Cl)c1`: the cytotoxicity call is “inactive”. To `CO[C@H]1CN(C)C(=O)c2ccc(NC(=O)CC(F)(F)F)cc2OC[C@H](C)N(C(=O)C2CCOCC2)C[C@H]1C` belongs “inactive”; to `Cc1noc(C)c1S(=O)(=O)N(C)C[C@@H]1Oc2ccc(N(C)C)cc2CC(=O)N([C@@H](C)CO)C[C@H]1C`, “inactive”. To `COc1ccc(C(=O)Nc2cccc(CN3C(=O)[C@@]4(O[C@@H](CC(=O)N5Cc6ccccc6C[C@H]5CO)[C@H]([Si](C)(C)c5ccc(OC)cc5)[C@H]4C)c4ccccc43)c2)cc1` belongs “active”; to `CNC[C@@H]1OCCCC[C@@H](C)Oc2ccc(NC(=O)c3ccncc3)cc2C(=O)N([C@H](C)CO)C[C@H]1C`, “inactive”.

In the case of `CO[C@@H]1CCN(C(=O)CS(C)(=O)=O)[C@@H]2CCO[C@H]21`, the cytotoxicity call is “inactive”. Turning to `C[C@@H]1CCCCO[C@H](CN(C)C(=O)Nc2ccc(C(F)(F)F)cc2)[C@H](C)CN([C@@H](C)CO)C(=O)c2cc(NS(=O)(=O)c3cccs3)ccc2O1`, the cytotoxicity call was “inactive”. To `CC(C)(C)OC(=O)C[C@H]1CC=CC[C@H](CC(=O)N[C@@H](CO)Cc2ccccc2)C(=O)N2CCC[C@@H]2COC1=O` belongs “inactive”; to `CC(N)(Cc1ccc(O)c(O)c1)C(=O)O` (stereo not given), “active”; to `COc1ccc(NC(=O)N(C)C[C@@H]2OCCCC[C@@H](C)Oc3ccc(NS(=O)(=O)c4ccc(Cl)cc4)cc3C(=O)N([C@@H](C)CO)C[C@H]2C)cc1`, “inactive”. On to `COc1ccc(S(=O)(=O)Nc2ccc3c(c2)C(=O)N([C@H](C)CO)C[C@@H](C)[C@@H](CN(C)S(=O)(=O)c2ccc(Cl)cc2)OCCCC[C@@H](C)O3)cc1`, for which the cytotoxicity call is “inactive”. To `COc1ccccc1C#Cc1cnc2c(c1)C(=O)N([C@H](C)CO)C[C@@H](C)[C@@H](CN(C)C(=O)CC1CC1)O2` belongs “inactive”.

Consider `Cc1noc(C)c1NC(=O)Nc1ccc2c(c1)C(=O)N([C@H](C)CO)C[C@@H](C)[C@H](CN(C)C(=O)Nc1c(C)noc1C)OCCCC[C@@H](C)O2`, for which the cytotoxicity call was “inactive”. To `C[C@@H]1CN([C@@H](C)CO)C(=O)Cc2cc(NC(=O)Nc3ccc4c(c3)OCO4)ccc2O[C@@H]1CN(C)C(=O)Nc1cccc2ccccc12` belongs “inactive”.

For the molecule `NC(CC(=O)N1CCn2c(nnc2C(F)(F)F)C1)Cc1cc(F)c(F)cc1F.O.O=P(O)(O)O` (stereo not given), the cytotoxicity call was “inactive”. To `COCC(=O)N(C)C[C@@H]1Oc2cc(C#CC(C)(C)O)ccc2S(=O)(=O)N([C@@H](C)CO)C[C@H]1C` belongs “inactive”; to `c1ccc(Oc2nnc(-c3ccccc3)c3ccccc23)cc1`, “inactive”. To `CCc1cccc(C(C)C)c1NC(=O)Nc1ccccc1` belongs “inactive”; to `C[C@@H]1CN([C@H](C)CO)C(=O)c2cc(NC(=O)Nc3ccc(F)cc3)ccc2O[C@@H](C)CCCCO[C@@H]1CN(C)S(=O)(=O)c1cccs1`, “inactive”; to `C[C@H](CO)N1C[C@H](C)[C@H](CN(C)S(=O)(=O)c2ccc(Cl)cc2)OCc2ccccc2-c2c(n(C)c3ccccc23)C1=O`, “active”. To `C[C@@H]1CN([C@H](C)CO)C(=O)CCCn2nncc2CO[C@@H]1CN(C)C(=O)Nc1ccc2c(c1)OCCO2` belongs “inactive”; to `COc1ccc(C#Cc2cnc3c(c2)C(=O)N([C@@H](C)CO)C[C@H](C)[C@H](CN(C)CC2CCOCC2)O3)cc1`, “inactive”.
